# Measurements: PubChem BioAssay (NCATS)
# “And” between values parts separate entries of the source, which are not always exact repeats. Equal entries are not always repeated. This list was built around the results that the source calls inconclusive (neither active nor inactive); the mix of calls is not that of the screen. Potencies of inconclusive entries are doubtful fits and often do not repeat. The source made the active and inactive calls. Calls follow the shape of the dose curve; as a rule, active = well fitted curve in the direction sought with a large enough effect; inconclusive = small, poorly fitted or top-dose-only effect, or another doubt; inactive = no such curve, though single readings can be large; an effect the other way counts as inactive or inconclusive.
# What was measured:
# [1] = qHTS of pediatric cancer cell lines to identify multiple opportunities for drug repurposing: Primary screen for DAOY cells (AID 1347090); also: nearly all actives have a fitted effect of over 55% in size;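 as to activity change, negative = cytotoxic: plate controls were DMSO for no effect and bortezomib for full effect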
# Method in brief: (§1)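 Cell viability, CellTiter-Glo luminescence; 500-1,000 cells/well, 8- or 11-point titration, 48 h compound exposure at 37 degrees C, 5% CO2. Controls: DMSO neutral, bortezomib 2.3 µM final as positive.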
# [2] = qHTS of pediatric cancer cell lines to identify multiple opportunities for drug repurposing: Primary screen for SJ-GBM2 cells (AID 1347091);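 as to activity change, negative = cytotoxic: plate controls were DMSO neutral control for no effect and bortezomib for full effect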
# Method in brief: as §1
# [3] = qHTS of pediatric cancer cell lines to identify multiple opportunities for drug repurposing: Primary screen for A673 cells (AID 1347092); settings: A673 Ewing sarcoma viability, CellTiter-Glo ATP luminescence, 48 h; activity change, negative = cytotoxic: at 46 µM (top of the series); also: nearly all actives have a fitted effect of over 45% in size; as to activity change, negative = cytotoxic: % is scaled to controls: 0 for no effect and ±100 for the full control effect
# Method in brief: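 Cell viability of A673 measured by CellTiter-Glo ATP luminescence after 48 hours compound exposure. Dilution series spanned 0.78 nM to 46 µM (MIPE, 11-point) or 0.59 nM to 46 µM (NPC, 8-point); bortezomib 2.3 uM positive control.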
# [4] = qHTS of pediatric cancer cell lines to identify multiple opportunities for drug repurposing: Primary screen for BT-37 cells (AID 1347094);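 as to activity change, negative = cytotoxic: plate controls were DMSO for no effect and bortezomib for full effect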
# Method in brief: (§2)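 500-1,000 cells/well; 5 h pre-incubation 37 °C/5% CO2; compound pinned; 48 h; CellTiter-Glo, 15 min RT; luminescence. MIPE 11-pt from 0.78 nM, NPC 8-pt from 0.59 nM final. Bortezomib 2.3 µM final as positive control.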
# [5] = qHTS of pediatric cancer cell lines to identify multiple opportunities for drug repurposing: Primary screen for U-2 OS cells (AID 1347096); also: nearly all actives have a fitted effect of over 50% in size;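 as to activity change, negative = cytotoxic: plate controls were DMSO wells for no effect and bortezomib positive control wells for full effect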
# Method in brief: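 Cells (500-1,000/well) rested 5 h, then received compounds for 48 h; metabolically active cells were measured by CellTiter-Glo luminescence. Final concentrations spanned up to 46 µM (MIPE, 11-point) or 0.59 nM-46 µM (NPC, 8-point) in primary screens, 11-point in follow-ups.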
# [6] = qHTS of pediatric cancer cell lines to identify multiple opportunities for drug repurposing: Primary screen for NB-EBc1 cells (AID 1347095);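 as to activity change, negative = cytotoxic: plate controls were DMSO neutral control for no effect and bortezomib for full effect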
# Method in brief: as §2
# [7] = qHTS of pediatric cancer cell lines to identify multiple opportunities for drug repurposing: Primary screen for SK-N-MC cells (AID 1347093); settings: SK-N-MC viability, CellTiter-Glo luminescence, 48 h; activity change, negative = cytotoxic: at 46 µM (top of the series);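 as to activity change, negative = cytotoxic: plate controls were DMSO neutral control for no effect and bortezomib for full effect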
# Method in brief: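 Metabolically active cells were quantified by ATP-dependent luminescence (CellTiter-Glo, 15 min at room temperature) following 48 h treatment. Cells had been plated at 500-1,000 per well and settled for 5 h beforehand.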
# Potency is read from the fitted curve at half-maximal effect; tags tell the direction and shape of the fitted curve.
structure (smiles),measurement,setting,value
CCOc1cc(C=C2C(=O)N(c3ccccc3)N=C2C)cc(Cl)c1OCC(=O)OC,Potency,[1],"inconclusive: 14.8 µM [cytotoxic, partial curve, poor fit]"
same,Potency,[2],"inconclusive: 33.2 µM [cytotoxic, single point]"
same,"activity change, negative = cytotoxic",[3],inconclusive: -30.4% [cytotoxic]
same,Potency,[4],inactive
O=C1[C@H]2CCCC[C@H]2C(=O)N1CCCCN1CCN(c2nsc3ccccc23)CC1,Potency,[1],inactive
same,Potency,[2],"inconclusive: 23.7 µM [cytotoxic, single point]"
same,Potency,[3],"inconclusive: 33.5 µM [cytotoxic, single point]"
same,Potency,[5],inactive
CC[C@@H]1C(=O)N(C)c2cnc(Nc3ccc(C(=O)NC4CCN(C)CC4)cc3OC)nc2N1C1CCCC1,Potency,[1],"inconclusive: 0.0296 µM [cytotoxic, full curve, poor fit]"
same,Potency,[2],active: 0.0372 µM
same,Potency,[5],active: 14.8 µM
CC[C@]12C=CCN3CC[C@@]4(c5cc([C@@]6(C(=O)OC)C[C@H]7C[C@@H](C(C)(F)F)CN(Cc8c6[nH]c6ccccc86)C7)c(OC)cc5N(C)[C@H]4[C@@](O)(C(=O)OC)[C@H]1OC(C)=O)[C@@H]32,Potency,[1],active: 0.0296 µM
same,Potency,[2],active: 0.001 µM
same,Potency,[3],active: 0.0047 µM
same,Potency,[4],active: 0.0273 µM
same,Potency,[6],active: 0.0118 µM
same,Potency,[5],"inconclusive: 0.235 µM [cytotoxic, full curve]"
CC1(C)C(N(O)C(=O)Nc2ccc(Cl)cc2)N(c2ccc(Cl)cc2)C(=O)N1CC(=O)NN=CC=Cc1ccc([N+](=O)[O-])o1 (configuration not stated),Potency,[1],"inconclusive: 29.6 µM [cytotoxic, single point]"
same,Potency,[2],active: 18.7 µM
same,Potency,[7],"inconclusive: 29.6 µM [cytotoxic, partial curve, poor fit]"
same,Potency,[4],"inconclusive: 30.6 µM [cytotoxic, single point]"
same,Potency,[6],"inconclusive: 37.2 µM [cytotoxic, single point]"
same,Potency,[5],inactive
CN1CCc2c(n(Cc3ccc(C(=O)NO)cc3)c3ccccc23)C1,Potency,[1],"inconclusive: 18.7 µM [cytotoxic, partial curve]"
same,Potency,[2],active: 16.6 µM
same,Potency,[4],"inconclusive: 21.7 µM [cytotoxic, partial curve]"
CN[C@H]1CCc2cc(OC)c(OC)c(OC)c2-c2ccc(OC)c(=O)cc21,Potency,[1],active: 0.0037 µM
same,Potency,[2],active: 0.001 µM
same,Potency,[3],active: 0.0012 µM
same,Potency,[4],active: 0.0061 µM
same,Potency,[6],active: 0.001 µM
same,Potency,[5],"inconclusive: 0.0235 µM [cytotoxic, full curve, poor fit]"
C[C@@H](Oc1cc(-c2cnn(C3CCNCC3)c2)cnc1N)c1c(Cl)ccc(F)c1Cl,Potency,[1],"inconclusive: 18.7 µM [cytotoxic, partial curve]"
same,Potency,[2],active: 0.0743 µM
same,Potency,[7],active: 2.35 µM
same,Potency,[4],"inconclusive: 19.3 µM [cytotoxic, partial curve]"
same,Potency,[5],"inconclusive: 23.5 µM [cytotoxic, single point]"
Cc1nnc(SCC2=C(C(=O)O)N3C(=O)[C@@H](NC(=O)Cn4cnnn4)[C@H]3SC2)s1,Potency,[1],inactive
same,Potency,[2],inactive
same,Potency,[7],inactive
same,Potency,[5],inactive
OC[C@H]1O[C@@H](n2cnc3c(=S)nc[nH]c32)[C@H](O)[C@@H]1O,Potency,[1],active: 0.422 µM
same,Potency,[2],active: 3.76 µM
same,Potency,[5],"inconclusive: 1.68 µM [cytotoxic, full curve]"
Cc1cc(Cl)ccc1OCCCC(=O)NO,Potency,[1],active: 9.35 µM
same,Potency,[2],"inconclusive: 29.6 µM [cytotoxic, single point]"
same,Potency,[4],"inconclusive: 24.3 µM [cytotoxic, single point]"
same,Potency,[5],"inconclusive: 23.5 µM [cytotoxic, partial curve, poor fit]"
O=C(c1ccc(C(=O)N2CCC(N3CCCC3)CC2)c(Nc2ccccc2)c1)N1CCC(N2CCCC2)CC1,Potency,[1],"inconclusive: 23.5 µM [cytotoxic, partial curve, poor fit]"
same,Potency,[2],inactive
same,Potency,[7],"inconclusive: 29.6 µM [cytotoxic, single point]"
CC(C)(O)CC(=O)NCCn1ccc2ncnc(Nc3ccc(Oc4cccc(C(F)(F)F)c4)c(Cl)c3)c21,Potency,[1],active: 0.469 µM
same,Potency,[2],"inconclusive: 33.2 µM [cytotoxic, single point]"
same,Potency,[4],active: 24.3 µM
same,Potency,[6],"inconclusive: 33.2 µM [cytotoxic, single point]"
C[N+](C)([O-])CCNc1ccc(NCC[N+](C)(C)[O-])c2c1C(=O)c1c(O)ccc(O)c1C2=O,Potency,[1],inactive
same,Potency,[3],"inconclusive: 11.8 µM [cytotoxic, partial curve, poor fit]"
same,Potency,[7],"inconclusive: 23.5 µM [cytotoxic, partial curve, poor fit]"
same,Potency,[6],"inconclusive: 18.7 µM [cytotoxic, partial curve]"
Cc1nn(Cc2ccccc2Cl)c(C)c1CN(C)CC(O)COc1ccc(Cl)cc1 (configuration not stated),Potency,[1],"inconclusive: 29.6 µM [cytotoxic, single point]"
same,Potency,[3],"inconclusive: 23.5 µM [cytotoxic, single point]"
same,Potency,[4],"inconclusive: 21.7 µM [cytotoxic, partial curve]"
same,Potency,[6],"inconclusive: 16.6 µM [cytotoxic, partial curve]"
CC(C)CN(C[C@H](O)[C@H](Cc1ccccc1)NC(=O)O[C@H]1CCOC1)S(=O)(=O)c1ccc(N)cc1,Potency,[1],"inconclusive: 14.8 µM [cytotoxic, partial curve, poor fit]"
same,Potency,[7],"inconclusive: 7.43 µM [cytotoxic, partial curve, poor fit]"
same,Potency,[4],"inconclusive: 27.3 µM [cytotoxic, single point]"
Nc1ncnc2nc[nH]c12,Potency,[1],inactive
same,Potency,[7],inactive
same,Potency,[5],inactive
CC(C)c1nn(-c2c(Cl)cccc2Cl)c2nc(Cc3ccc(OCCO)cc3)[nH]c(=O)c12,Potency,[1],active: 0.0743 µM
same,Potency,[3],active: 0.0372 µM
same,Potency,[4],active: 0.0968 µM
NC(N)=NC(N)=NCCc1ccccc1,Potency,[1],"inconclusive: 26.6 µM [cytotoxic, single point]"
same,Potency,[3],active: 8.41 µM and active: 5.9 µM
same,Potency,[4],"inconclusive: 27.6 µM [cytotoxic, partial curve, poor fit] and inconclusive: 24.3 µM [cytotoxic, single point]"
same,Potency,[6],"inconclusive: 16.6 µM [cytotoxic, partial curve]"
same,Potency,[5],"inconclusive: 7.43 µM [cytotoxic, full curve, poor fit]"
COC(=O)[C@@H]1CC2=CC(=O)CC[C@]2(C)[C@@]23O[C@@H]2C[C@@]2(C)[C@@H](CC[C@@]24CCC(=O)O4)[C@H]13,Potency,[1],inactive
same,Potency,[4],inactive
COc1cc(C=CC(=O)CC(=O)C=Cc2ccc(O)c(OC)c2)ccc1O,Potency,[1],active: 21.5 µM
same,Potency,[3],active: 6.79 µM
same,Potency,[4],active: 31.4 µM
same,Potency,[5],"inconclusive: 13.6 µM [cytotoxic, full curve]"
C[C@]12C=CC(=O)C=C1[C@@H](F)C[C@@H]1[C@@H]2[C@@H](O)C[C@@]2(C)[C@H]1CC[C@]2(O)C(=O)CO,Potency,[1],inactive
same,Potency,[7],inactive
CN(C)CCOc1ccc(-c2nc(-c3ccc4c(c3)CCC4=NO)c(-c3ccncc3)[nH]2)cc1,Potency,[1],"inconclusive: 29.6 µM [cytotoxic, single point]"
same,Potency,[7],"inconclusive: 23.5 µM [cytotoxic, partial curve, poor fit]"
same,Potency,[4],active: 30.6 µM
same,Potency,[5],"inconclusive: 37.2 µM [cytotoxic, single point]"
Cc1cnc(Nc2ccc(F)cc2Cl)nc1-c1c[nH]c(C(=O)N[C@H](CO)c2cccc(Cl)c2)c1,Potency,[1],active: 7.43 µM
same,Potency,[4],active: 0.485 µM
same,Potency,[5],active: 7.43 µM
CC(C[N+](C)(C)C)OC(N)=O (configuration not stated),Potency,[1],inactive
same,Potency,[4],inactive
COc1ccc(NS(=O)(=O)c2ccc(N)cc2)nn1,Potency,[1],inactive
same,"activity change, negative = cytotoxic",[7],inconclusive: -31.4% [cytotoxic]
CCOc1ccc(NC(=O)CC(C)O)cc1 (configuration not stated),Potency,[1],inactive
same,Potency,[7],inactive
O=C(CCCCCCNC(=O)c1cnc(N(c2ccccc2)c2ccccc2)nc1)NO,Potency,[1],active: 18.7 µM
same,Potency,[3],active: 9.35 µM
same,Potency,[6],active: 4.18 µM
Cc1ncc(-c2ccnc(Nc3ccc(S(C)(=O)=O)cc3)n2)n1C(C)C,Potency,[1],active: 4.69 µM
same,Potency,[3],active: 0.935 µM
same,Potency,[7],active: 2.35 µM
same,Potency,[4],active: 6.11 µM
same,Potency,[5],"inconclusive: 11.8 µM [cytotoxic, partial curve]"
COc1cc(Cl)cn2c(-c3cccc(NC4CNC4)n3)cnc12,Potency,[1],"inconclusive: 9.35 µM [cytotoxic, full curve]"
same,Potency,[7],active: 2.96 µM
same,Potency,[4],"inconclusive: 24.3 µM [cytotoxic, partial curve]"
same,Potency,[5],"inconclusive: 29.6 µM [cytotoxic, single point]"
Cc1nc2cnc3ccc(C#Cc4cccnc4)cc3c2n1-c1ccc(C(C)(C)C#N)cc1,Potency,[1],active: 0.118 µM
same,Potency,[4],active: 0.217 µM
same,Potency,[6],active: 0.833 µM
same,Potency,[5],"inconclusive: 37.2 µM [cytotoxic, partial curve, poor fit]"
C[C@H](Cn1cnc2c(N)ncnc21)OCP(=O)(O)O,Potency,[1],inactive
same,Potency,[7],"inconclusive: 37.2 µM [cytotoxic, single point]"
CC(C)c1cnn2c(NCc3ccccc3)cc(NCCCCCCN)nc12,Potency,[1],active: 4.69 µM
same,Potency,[3],active: 5.9 µM
same,Potency,[6],active: 20.9 µM
same,Potency,[5],"inconclusive: 18.7 µM [cytotoxic, single point]"
N#Cc1c(O)c2c(-c3ccc(-c4ccccc4O)cc3)csc2[nH]c1=O,Potency,[1],inactive
same,Potency,[7],inactive
same,Potency,[6],inactive
NC(=O)n1c(O)c(C(=O)c2cccs2)c2cc(Cl)ccc21,Potency,[1],"inconclusive: 33.5 µM [cytotoxic, single point]"
same,Potency,[3],"inconclusive: 26.6 µM [cytotoxic, single point]"
same,Potency,[4],"inconclusive: 38.9 µM [cytotoxic, single point]"
same,Potency,[6],active: 16.8 µM
